Results as given in the supplement of paper PMC4466236.
In all, about 33,000 sequences were measured (“E-score (dimensionless, -0.5 to 0.5)”: median about -0.058, highest 2% from about 0.35 on). The list shows a part of the results.

tested on: MvaT; test: PBM 8-mer E-score (mean of HK and ME arrays) (E-score (dimensionless, -0.5 to 0.5)); higher = stronger relative binding preference; most listed sequences are background and not binding sites
Procedure, shortened: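 Full-length P. aeruginosa MvaT, with glutathione S-transferase fused to its N-terminus (cloned into pTH6838 by isothermal assembly), was tested by protein binding microarray using a previously described protocol. Two universal double-stranded 60-mer arrays (ME and HK) were used, each with a constant 25-mer primer region and a variable 35-mer region covering all 8-mers. The rank-based 8-mer E-score (-0.5 to 0.5) is the mean of the two arrays, parsed with a custom Python script.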

Sequence | PBM 8-mer E-score
CGAGTTCC | -0.114
TAATCATA | 0.325
CCCCATTC | -0.16
AAGTCTTC | 0.049
AAATACGC | 0.156
ATTCAGCG | -0.131
AGACCCTA | -0.308
CAAGCCAC | -0.22
ATACGAAA | 0.148
CCGCCCGA | -0.197
AAATCCGC | 0.0391
CGGCACAA | 0.0115
AGATGTTC | 0.0116
ACAATTCG | 0.163
GACCCACA | -0.116
ACTAATAC | 0.247
CCATGTAC | 0.104
CGGCCTTC | -0.251
GGTTTGTA | 0.0982
AAATCGAG | 0.0222
ACCAGGGG | -0.324
GCCGTAAC | -0.0591
CTGTTAAA | 0.175
CGCTGCAC | -0.196
GTCTCATA | 0.0652

Sequence | PBM 8-mer E-score
CTTCGCAC | -0.111
TGGAACAA | 0.0976
AATGCGCA | 0.0405
AGTTACGG | 0.0999
ATGTATTG | 0.244
AATTCCTG | 0.194
GTGCGTAA | 0.0896
ACAAGAGC | -0.05
CAGACAGC | -0.188
TCACCACA | 0.0522
ATTACAAA | 0.218
CAGGTATC | -0.174
AACAATAC | 0.254
CATTTTTC | 0.0773
GAAATGGC | -0.0838
AAAAGCGC | 0.163
CAGTTACC | 0.143
GATAAATC | 0.137
ACGGGACT | 0.0339
AACTAACC | 0.0709
ATTGTCAA | 0.2
ACCTAAGT | 0.00894
CGAGAGCC | -0.0802
AGCCTAGA | -0.137
CAGCGGTA | -0.068

Sequence | PBM 8-mer E-score
CATAGAAG | 0.0245
ACGCCGCA | -0.156
TCCCTCCA | -0.267
CGTAGGGC | -0.248
AATTGACA | 0.185
AATACTGC | 0.182
CAGCCGGA | -0.269
AAGTATAA | 0.379
TCGAATCA | -0.0287
GCCCACAA | -0.0229
ACGGCACC | -0.0496
ACTCCTTA | 0.118
CATTCCTA | -0.0168
AGCTCGAA | -0.137
CAATGGCG | -0.206
TCGAGGCA | -0.216
GTGCCGCA | -0.175
TCATTCCA | -0.127
ACATTGTG | 0.0981
ACATGGCA | -0.0514
AGAGGGGG | -0.338
ACGCGAAG | -0.119
AAACACGG | -0.0269
ACGTGGCC | -0.18
CGTTTCGA | -0.0587

Sequence | PBM 8-mer E-score
AAACTACC | 0.176
ATTAATTA | 0.461
AGGAGTGA | -0.184
CAACCCGA | -0.0421
TCTTCCCA | -0.122
ACCGTCAT | -0.0509
ACCACTAG | -0.22
CCTCGACG | -0.311
CGGCCCAG | -0.264
CAGGGGTA | -0.0465
CGCTAGCG | -0.163
AACCTTGT | -0.0261
CCCGTCCG | -0.218
CCAATCCA | -0.0265
ACTCCAGC | -0.16
AAGATGCT | -0.126
GCGACAGC | -0.0691
AAGAATGA | 0.141
GCGGCGTA | -0.061
AACCCCAC | -0.189
GACTCCCC | -0.285
CAAGCACG | -0.238
AACCCCAT | -0.0866
AACCCAGC | -0.0668
GCCTATAA | 0.197

Sequence | PBM 8-mer E-score
GCGGACAC | -0.229
CAACCCCG | -0.222
CGAACTCC | -0.197
GCCTCAGA | -0.182
AATTGTCT | 0.0935
TACCGATA | 0.159
AGGGTTGG | -0.221
CAATTTTA | 0.293
GCTCCGTA | -0.0348
ATATATAC | 0.464
CATTCAAA | 0.088
AGCTCCCG | -0.29
GTAGGAAA | -0.101
AACCAGGG | -0.346
TATATCCA | 0.338
ATGCAACA | 0.0781
CACAGTCG | -0.175
AAAGCTGG | -0.0254
GTGTCAAC | -0.0279
AGAATTTG | 0.161
ATGAGACG | -0.229
TGAGCCCA | -0.292
ACAGAGGA | -0.0596
ACGGATCG | -0.123
AGACCCCA | -0.212

Sequence | PBM 8-mer E-score
ACCGGAGG | -0.129
GATCAGCA | -0.235
TAAATCAA | 0.341
AGGATCGG | -0.204
AGACCCGC | -0.237
AATAAAGC | 0.292
GAAATCAA | -0.00989
CAGTTCGC | -0.083
CGATAGAA | 0.0594
CTTGGCGC | -0.187
CATATTGG | 0.0502
AGGTTCTA | -0.057
ATCCACGA | 0.038
CAAGCAGC | -0.126
GAGGGGGC | -0.357
ATACGCCC | -0.117
CATTACTA | 0.263
CACTGTAA | 0.216
CTGACACA | 0.0556
ATGTTCAG | 0.0976
ATAAGAAG | 0.273
ACAAGAGT | 0.0702
GCTCCGGA | -0.275
CGCGTCTA | 0.000191
AGCAACAG | 0.00542

Sequence | PBM 8-mer E-score
ACGTATTG | 0.183
GCACGGAC | -0.347
TGCTTACA | -0.13
ACGGTCTA | -0.0448
AAGTCGAG | -0.181
CTGGCGAA | -0.0593
CCACAGGG | -0.258
AGTTGAGC | 0.0207
AGAAGGTA | -0.0116
CGTGGTCC | -0.173
CCTATGAC | -0.17
CGATGTCC | -0.144
AAAATGCT | 0.0072
ATCAGTGA | -0.0827
GGAGTTAA | 0.193
GGAAACTA | 0.181
ATTTCGCG | 0.0681
AACTCTGC | 0.143
AAGTTGGG | 0.192
CTCCGAGA | -0.06
TACCTCTA | 0.0222
ACGACGGA | 0.000212
CAGGGAGA | -0.252
TCATGCGA | -0.0834
CGAGGCAG | -0.287

Sequence | PBM 8-mer E-score
ATTTCAAC | 0.197
ATCTGAGC | -0.103
CTGAGATC | -0.185
AGAAGGAC | -0.234
GAAAACTC | -0.159
ATTCGTTC | -0.00457
GAAAATAA | 0.349
CATTGCTC | -0.0978
ACCAGGTG | -0.204
GAGACCCA | -0.162
AACTAAGC | 0.168
GTTCATTA | 0.158
GTTTAGAA | 0.0138
CAGTCTTA | 0.124
GGCCCGCC | -0.354
ATCTCTGC | -0.251
AACGACCG | -0.105
AGATAGCG | -0.011
AGTAAATA | 0.361
ATATTTTC | 0.32
AAGGCCTC | -0.268
ACGCTGTC | -0.261
CTGCACAC | 0.0376
ACTCAAGA | -0.0191
CTGGGCCC | -0.333

Sequence | PBM 8-mer E-score
CTACGAGC | -0.276
CCTAGTCG | -0.142
GTTTGCAA | 0.159
AGGTTGTC | -0.177
CGACGCTC | -0.304
AATGCCCC | -0.175
ACACTAGT | 0.258
CGATTCGA | -0.0688
CCGCGCAA | -0.176
AACAATGT | 0.264
ATGGCTTG | -0.187
ATTTACTG | 0.247
AACCTGTG | -0.0614
AATTGGGA | 0.0825
TAACGCTA | 0.057
CCCGTACA | -0.0141
ACGCTTCT | -0.111
GTACCAGA | -0.083
CAAATATC | 0.233
GATAGCTA | -0.0522
CGACTGAC | -0.281
CACGCCCC | -0.29
ATACGCAG | -0.0253
ATCACTCC | -0.158
ATCTCGTG | -0.142

Sequence | PBM 8-mer E-score
ATTCCCCC | -0.00368
TGGTTTAA | 0.313
CAATCTTC | 0.0249
GAGCTGGA | -0.0964
GCCAACAC | -0.0601
GTGCAGTA | 0.172
AGGCCGAT | -0.208
AACTTCCA | 0.0901
AATCCATT | 0.085
AGCGCTGG | -0.217
CAACTAGG | 0.0857
ATACATCC | 0.197
CAATTTCC | 0.143
GATGCAGC | -0.106
CACCAAAG | 0.0651
CTACCTGA | -0.164
CCGTCTTC | -0.15
AATTGCCT | -0.000757
AGACCCAT | -0.0497
ACGGAGAA | 0.0223
AAGCTAAC | -0.15
ATATTGAG | 0.287
CTCCCTGA | -0.246
TATGTCCA | 0.158
GCAGCAAC | -0.121

Sequence | PBM 8-mer E-score
CGGGAGCA | -0.176
CACTTTGC | 0.00316
GGTGCAGA | -0.154
ATGAACCC | -0.14
AGCCAATA | 0.102
CACTCTGG | -0.149
CGAGGTGA | -0.181
CCATGGGG | -0.298
CACTCCCC | -0.237
GGAATCTA | -0.0396
AAATAGTC | 0.235
GAGAAGGC | -0.252
CGTGAGTA | -0.0677
AAGCTCGC | -0.229
AACTTGGG | 0.0738
GACCGCCA | -0.19
CGTACTTA | 0.0935
CACCACCC | -0.103
ATGATCTC | -0.0606
CAACCGCA | -0.116
ATCTACGC | 0.0348
CAAGAATA | 0.225
CCCTACCG | -0.223
CATACTGC | -0.00659
CAGGCGGG | -0.229

Sequence | PBM 8-mer E-score
TGGTAGAA | 0.0172
TAAAAGAA | 0.207
GTTCAAAC | 0.13
ATGAAGAG | 0.0317
ACAGTCAT | 0.0315
AACAGTCA | 0.0195
ACCGCTCC | -0.0921
CGGTAACC | -0.195
AGTGGCAC | -0.0586
ATGACTCA | -0.062
CTTCGAAA | 0.0509
AAGTGAGG | -0.207
ACTGTCAT | 0.0191
AGATTTAC | 0.126
GAACCTGC | -0.176
AAGCCGTC | -0.256
ATGGTACC | -0.0344
AAACAGGC | 0.022
GGAGAGAA | -0.0601
AAGAACAA | 0.267
CACAACGG | -0.176
CATGGCCG | -0.248
CTTCGATC | -0.136
TGCACACA | 0.0734
ATGGAAGG | -0.278

Sequence | PBM 8-mer E-score
GATCCGTA | -0.0565
CCTTGAGC | -0.173
CCGTCGCG | -0.224
AAATTTGT | 0.264
AGGAAGAT | 0.0835
GAGAAGAC | -0.209
ATTCCGTG | 0.0396
ACTATCTA | 0.128
CAGAAGAG | -0.126
CCGAGAGG | -0.256
GTTCGGGA | -0.0724
CAGCCTCG | -0.247
GAGCAAGA | -0.15
GGTGTTTA | 0.0667
GTGAGATA | 0.00796
CCTGCCCG | -0.301
AGAATGTG | 0.136
CGTACAAA | 0.0963
AGACTAAA | 0.125
CACGCCAG | -0.233
ATCCGAGC | -0.0779
CCACGAAG | 0.052
CTTTACCA | 0.0699
CCGTGCCG | -0.146
ACCCGCAA | 0.145

Sequence | PBM 8-mer E-score
ACTTGTTA | 0.245
CGAACCTA | -0.0542
CCTGGATC | -0.207
CTGCGCAG | -0.139
ATCTTCTC | 0.0223
CTCACGCA | -0.122
CCATGCCC | -0.187
CTGGGCCA | -0.137
ATTATAAC | 0.415
CAGCACAG | -0.152
AGATCCGC | -0.173
ATGCCAAC | -0.0824
CAACGATA | 0.0955
AAATCTAG | -0.0431
GCGACTGA | -0.144
GTGTTAGA | 0.0101
AGGAGTCG | -0.257
CACAGCGG | -0.0334
AATAGGGA | 0.0699
